The text below walks through data of PubChem BioAssay AID1508624 (National Center for Advancing Translational Sciences (NCATS), 2021).

Structures are written as SMILES. In all, about 48,000 compounds went through this assay and about 120 (0.25%) were called active. Not shown: some 4% with an inconclusive outcome. Calls follow the shape of the dose curve; as a rule, active = well fitted activation curve with a large enough effect; inconclusive = small, poorly fitted or top-dose-only effect, or another doubt; inactive = no such curve, though single readings can be large or run the other way. Some of the results follow.

The nature of the assay: Primary qHTS for Identification of Small Molecule Activators of Huntingtin-Antisense Promoter Activity. Also: nearly all actives have a fitted effect of over 55% in size. As to conditions: HEK293 HTT-AS promoter firefly luciferase reporter, 24 h; series mostly up to 57.5 µM; activity change, positive = activation: at the top concentration. In outline:
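Quantitative HTS used concentration series of up to 57.5 uM final on HEK293 luciferase reporter cells, 24 h at 37 degrees C. Readout was Dual-Glo firefly luminescence.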
A general note: qHTS replaces the single test concentration by a dilution series.
In the case of `COc1ccc(Cn2cc(S(=O)(=O)c3ccc(Cl)cc3)c(=O)c3cc4c(cc32)OCO4)cc1`, the “activity change, positive = activation” value was inactive: -8.36%. As for `CC(C)CNC(=O)N1[C@H](c2cccs2)[C@@H](C)C(=O)[C@@H](C)[C@@H]1c1cccs1`, the “activity change, positive = activation” value was inactive: -16.4%. For the compound `CCn1c(=N)n(CCOc2ccc(Br)cc2)c2ccccc21`, the “activity change, positive = activation” value was inactive: -32.7%. As for `COc1ccc(C)cc1NS(=O)(=O)c1c(C(=O)N2CCCCCC2)c(C)n(C)c1C`, the “activity change, positive = activation” value was inactive: -12.1%. Take `COc1ccc(CC(=O)NCCc2csc(-c3cccc(C)c3)n2)cc1`: the “activity change, positive = activation” value was inactive: -24.6%.

As for `CC(C)OCCCNC(=O)Cn1ccc2cc(S(=O)(=O)N3CCCCCC3)ccc21`, the “activity change, positive = activation” value is inactive: -21.2%. As to `Cc1oc(-c2ccccc2Cl)nc1Cn1c(SCc2cccc(F)c2)nc2cccnc21`, the “activity change, positive = activation” value is inactive: -19.7%. The result for `CC(=O)c1cccc(NC(=O)CC(c2ccc(C)cc2)N2Cc3ccccc3C2=O)c1` (stereo unspecified) reads inactive: -29.2%; that for `Cc1nc(-c2ccccc2)sc1-c1ccc(SCC(=O)NCc2ccc(Cl)cc2)nn1`, inactive: 5.81%. For the compound `CCN(C(=O)Nc1cn(CC(C)C)c(=O)c2ccccc12)c1cc(C)ccc1C`, the “activity change, positive = activation” value was inactive: -17.3%. Next, `Cc1ccc2nc(Nc3ccc(C)c(F)c3)c3nncn3c2c1`: inactive: 1.27%; `Cc1ccc(CNC(=O)CCn2cnc3ccccc3c2=O)cc1`: inactive: 4.59%; `Cc1c(Cl)cccc1NC(=O)C1CCN(c2ncnc3c2nc2n3CCCCC2)CC1`: inactive: -17%. As for `CCn1nc(C)c(CCN(C)C(=O)Nc2cc(OC)c(OC)c(OC)c2)c1C`, the “activity change, positive = activation” value is inactive: 0.688%. The result for `O=C(CS(=O)Cc1ccco1)NCC=CCOc1cc(CN2CCCCC2)ccn1` (stereo unspecified) reads inactive: -51.5%. For `Cc1ccc(N2CC(NC(=O)c3ccc(S(=O)(=O)N4CCOCC4)cc3)CC2=O)cc1` (stereo unspecified), the “activity change, positive = activation” value is inactive: -14.9%. Consider `CCOC(=O)c1cnn(-c2ccc(C(=O)Nc3cccc(C(C)=O)c3)cc2)c1N`, for which the “activity change, positive = activation” value was inactive: 12%. On to `COc1ccc2cc(C(=O)NCc3ccc4c(c3)CCN4C(=O)c3ccc(F)cc3)[nH]c2c1`, for which the “activity change, positive = activation” value was inactive: -2.57%. Next, `O=C(COCc1cc(-c2cccs2)on1)N1CCN(c2cccc(Cl)c2)CC1`: inactive: -24.7%; `O=C(CCn1c(=O)c2cccn2c2cccnc21)N1CCN(c2ccccc2F)CC1`: inactive: -10.6%. Next, `Fc1cccc(-c2nnn3c2nc(NCCc2ccccc2)c2ccccc23)c1`: inactive: 10.9%; `O=C(NC1CCCC1)c1ccc2c(c1)N(Cc1ccccc1)C(=O)c1ccccc1S2`: inactive: -24%; `CC1CCN(c2nc3ccc(C(=O)NCc4ccccc4Cl)cc3s2)CC1`: inactive: -80.6%. Next, `CC(C)(C(=O)c1cccnc1)c1cccnc1`: inactive: -4.31%; `COC(=O)Nc1ccc(-c2nc(N3CCOCC3)c3cnn(C4CCN(Cc5cccnc5)CC4)c3n2)cc1`: inactive: -29.1%. `Cc1ccc(F)cc1NC(=O)Cn1c(C)cc(C)c(C#N)c1=O`: the “activity change, positive = activation” value was inactive: -3.81%. As to `COc1ccc(N2CCN(Cc3nc4c(c(=O)[nH]c(=O)n4C)n3CC(C)C)CC2)cc1`, the “activity change, positive = activation” value was inactive: -10.6%.

Take `O=C(NCc1cccc(Br)c1)c1ccc(NC(=O)N2CCCCc3ccccc32)cc1`: the “activity change, positive = activation” value was inactive: -18.3%. `C[C@H](O)[C@@H]1C(=O)N2C(C(=O)O)=C(S[C@@H]3CN[C@H](CNS(N)(=O)=O)C3)[C@@H](C)[C@@H]12`: the “activity change, positive = activation” value was inactive: -4.44%. For `Cc1ccc(S(=O)(=O)c2nnn3c2nc(NCCc2ccccc2)c2sccc23)cc1`, the “activity change, positive = activation” value is inactive: -40.9%.

Take `Cc1ccc(-n2nc3c(=O)n(CC(=O)NCCC(C)C)nc(C)c3c2C)cc1`: the “activity change, positive = activation” value is inactive: -14.6%. Next, `CC(CNC(=O)c1nnc(Cc2ccc(F)cc2)o1)c1ccccc1` (stereo unspecified): inactive: -26.3%. The result for `Nc1ncn([C@H]2C[C@H](O)[C@@H](CO)O2)c(=O)n1` reads “inactive”; that for `COc1cc2ncc(C(=O)c3ccc(C)cc3)c(N3CCCCC3)c2cc1OC`, inactive: -36%. In the case of `COCCCNC(=O)Cn1c(=O)nc(-c2ccccc2)c2ccccc21`, the “activity change, positive = activation” value is inactive: 0.413%. Regarding `NCCCCNCCCN`, the “activity change, positive = activation” value was inactive: 14.5%. Turning to `CCCCC12CN3CC(C)(CN(C1)C3c1ccc(O)c(OC)c1)C2=O` (stereo unspecified), the “activity change, positive = activation” value is inactive: 0.462%.

As to `COc1ccc(Cn2cc(C(=O)c3ccc(C)c(C)c3)c(=O)c3ccccc32)cc1`, the “activity change, positive = activation” value is inactive: -20.2%. As to `CCOc1ccc(CCNC(=O)c2cc(C)nc3c2c(C)nn3-c2cccc(F)c2)cc1`, the “activity change, positive = activation” value was inactive: -23.7%. Next, `O=C(Cn1cc(S(=O)(=O)Cc2cccc(Cl)c2)c2ccccc21)Nc1ccccc1Cl`: inactive: -26.1%; `C[C@@H](c1ncncc1F)C(O)(Cn1cncn1)c1ccc(F)cc1F` (stereo partly specified): inactive: -3.69%. In the case of `Cc1cccc(NC(=O)COc2ccc(-c3nn(C)c(=O)c4ccccc34)cc2)c1`, the “activity change, positive = activation” value is inactive: -30.8%. Regarding `COC(=O)c1ccccc1NC(=O)CSc1nc(=O)cc(N)n1-c1ccccc1`, the “activity change, positive = activation” value was inactive: -5.86%.

Turning to `C[C@@H]1O[C@@H](O[C@H]2CC[C@@]3(C)[C@H](CC[C@@H]4[C@H]3C[C@@H](O)[C@]3(C)[C@@H](C5=CC(=O)OC5)CC[C@]43O)C2)C[C@H](O)[C@@H]1O[C@H]1C[C@H](O)[C@H](O[C@H]2C[C@H](O)[C@@H](O)[C@@H](C)O2)[C@H](C)O1` (stereo in doubt), the “activity change, positive = activation” value is inactive: -51.3% [at 116 µM, percent change from vehicle, -100% = no light]. Next, `CCOc1ccc(NC(=O)CSc2nnc(-c3ccc(OCC)cc3)o2)cc1`: inactive: -79.8%; `Cc1ccc(NC(=O)Cn2c(=O)n(Cc3nc(-c4ccccc4)no3)c(=O)c3ccccc32)cc1C`: inactive: -17.5%; `Cc1ccc(CNC(=O)c2c(-c3ccccc3Cl)noc2C)o1`: inactive: -14.6%. With `Cc1coc2cc3oc(=O)c(CC(=O)NCc4cccc(Cl)c4)c(C)c3cc12`, the “activity change, positive = activation” value was inactive: -27.4%. `COc1ccc(CNC(=O)Nc2ccc3c(c2)N(C)C(=O)c2ccccc2S3)cc1OC`: the “activity change, positive = activation” value is inactive: -28.8%. As to `COc1cc(OC)c(NC(=O)CN2CCCN(Cc3ccccc3C)S2(=O)=O)cc1Cl`, the “activity change, positive = activation” value is inactive: -18.5%.

Consider `CN1CC(=O)NC1=N`, for which the “activity change, positive = activation” value is inactive: 0.545%. As to `Cc1ccccc1C(=O)Nc1c(C)nc2ccccn2c1=O`, the “activity change, positive = activation” value was inactive: -4.87%. The result for `Cn1c(=O)oc2cc(S(=O)(=O)N3CCCC(C(=O)NCCc4ccccc4)C3)ccc21` (stereo unspecified) reads inactive: -21.6%; that for `Cc1ccc(CNC(=O)c2c[nH]n3c(=O)c(Cc4ccc(Cl)cc4)c(C)nc23)cc1`, inactive: -24.1%; that for `Cc1c(C)c2c(c(C)c1OC(=O)CCC(=O)OCCO)CC[C@@](C)(CCC[C@H](C)CCC[C@H](C)CCCC(C)C)O2`, inactive: -24.9%. As for `O=C(NCCc1ccccc1)c1nn(-c2ccc(F)cc2)nc1CO`, the “activity change, positive = activation” value was inactive: -9.89%.

For the compound `Cc1cccc(CNC(=O)c2ccc3nc(Cc4ccccc4)oc3c2)c1`, the “activity change, positive = activation” value was inactive: 4.68%. Next, `CCOc1ccc(C2c3[nH]c4ccccc4c3CCN2C(=O)CSCc2ccc(F)cc2)cc1` (stereo unspecified): inactive: -32%; `Cc1cc(S(=O)(=O)NCC(c2ccco2)S(=O)(=O)c2cccs2)ccc1F` (stereo unspecified): inactive: -4.33%.

For the compound `O=C(Cc1ccc(-c2ccc(OCCN3CCOCC3)cc2)cn1)NCc1ccccc1`, the “activity change, positive = activation” value is inactive: -33%. On to `Cc1cccc(NC(=O)CS(=O)(=O)c2cccc3nsnc23)c1`, for which the “activity change, positive = activation” value is inactive: -5.53%. The result for `Cc1ccc(CCNC(=O)c2c3c(nc4ccccc24)C(=O)N(C2CCCCC2)C3)cc1` reads inactive: -8.01%; that for `Cc1cc(C)c2c(=O)cc(C(=O)Nc3c(C)n(C)n(-c4ccccc4)c3=O)oc2c1`, inactive: 1.28% [at 11.5 µM, percent change from vehicle, -100% = no light]. Next, `O=C(CCC1N=C2c3ccccc3N=C(SCc3cccc(Cl)c3)N2C1=O)N1CCN(c2ccccc2)CC1` (stereo unspecified): inactive: -15.2%; `COc1ccc(C(=O)c2c(N)c(-c3nc(-c4ccc(OC)cc4)cs3)c3ccccn23)cc1`: inactive: 10.2%; `COc1cc2[nH]c(=O)n(CCC(=O)N3CCN(c4ccc(Cl)cc4)CC3)c(=O)c2cc1OC`: inactive: -0.0386%.

In the case of `CCn1nc(-c2ccccc2)c(-c2ccccc2)c(C(=O)Nc2ccccc2C#N)c1=O`, the “activity change, positive = activation” value is inactive: -21.6%.

Regarding `Cc1cc(C)c(/C=C/c2onc(C)c2S(=O)(=O)N2CCC(C(=O)NCc3ccccc3Cl)CC2)c(C)c1`, the “activity change, positive = activation” value was inactive: 16%. `CCOc1ccc(N(CC(=O)Nc2ccccc2CC)S(=O)(=O)c2c(C)noc2C)cc1`: the “activity change, positive = activation” value is inactive: -43.9%.

As for `Cc1ccc(Cl)cc1NC(=O)C1CCN(S(=O)(=O)c2cccc3nonc23)CC1`, the “activity change, positive = activation” value was inactive: -18.3%. Next, `COc1cccc(Cn2c(=O)n(CCc3ccccc3)c(=O)c3c2c2cc(OC)ccc2n3C)c1`: inactive: -9.57%; `COc1ccc(C(=O)NNc2ncnc3c2cnn3-c2ccc(C)c(Cl)c2)cc1`: inactive: -34%; `COc1ccc(NC(=O)c2c(NC(=O)c3ccncc3)sc3c2CCC(C(C)(C)C)C3)cc1` (stereo unspecified): inactive: -41.4%.

For the compound `Cc1cccc(NC(=O)CSc2nc3ccccc3nc2N2CCCCC2)c1C`, the activity change, positive = activation is inactive: 8.87% [at 11.5 µM, percent change from vehicle, -100% = no light]. Next, `COc1cc(NC(=O)C(Cc2ccccc2)NS(=O)(=O)c2cccc3nsnc23)cc(OC)c1` (stereo unspecified): inactive: -8.98%. The result for `CC(=O)SC[C@@H](Cc1ccccc1)C(=O)NCC(=O)OCc1ccccc1` reads inactive: -9.11%. Turning to `O=C(Cn1ccn(-c2ccc(F)c(F)c2)c(=O)c1=O)NCCc1ccccc1`, the “activity change, positive = activation” value was inactive: -13.3%. Turning to `CC(=O)c1cccc(NC(=O)CCc2c(C)nc3c(c(C)nn3-c3ccccc3)c2C)c1`, the “activity change, positive = activation” value was inactive: -29.4%. Next, `Cc1cc(C)cc(NC(=O)c2cc(S(=O)(=O)N3CCC(C)CC3)cn2C)c1`: inactive: -26.1%; `CCn1c(-c2nonc2N)nc2cncc(CNC3CCNCC3)c21`: inactive: -3.85%; `CCCCNc1nc(Oc2ccc(=O)n(C)n2)nc(N2CCOCC2)n1`: inactive: 9.49%. With `CCC(CC)C(=O)Nc1ccc2nc(SCC(=O)N3CCc4ccccc43)sc2c1`, the “activity change, positive = activation” value was inactive: -30.8%. Next, `Cc1ccc(CNC(=O)CN(c2cccc(C)c2C)S(=O)(=O)c2ccccc2)cc1`: inactive: -34.2%; `CC(=O)c1cccc(NC(=O)C2CCCN(C(=O)c3cnn(-c4ccccc4)c3-n3cccc3)C2)c1` (stereo unspecified): inactive: -27.1%. In the case of `Cc1cccc(N2CCN(S(=O)(=O)c3cc(Cl)ccc3Cl)CC2)c1C`, the “activity change, positive = activation” value is inactive: -8.52%. The result for `Cn1c2ccccc2c2cnn(CC(=O)N3CCN(c4cccc(C(F)(F)F)c4)CC3)c(=O)c21` reads inactive: -6.09%; that for `COc1ccc(CC(=O)NCc2ccc3c(c2)CCN3C(C)=O)cc1`, inactive: 1.08%; that for `COc1ccc(-c2nc(SCC(=O)Nc3ccc4c(c3)OCCO4)c(-c3ccc(F)cc3)[nH]2)cc1OC`, inactive: -7.03%. `Cc1ccc(-c2ccccc2C#N)cc1`: the “activity change, positive = activation” value was inactive: 3.01%.

Regarding `O=C(c1ccc2c(c1)N(Cc1ccc(F)cc1)C(=O)c1ccccc1S2(=O)=O)N1CCN(Cc2ccccc2)CC1`, the “activity change, positive = activation” value is inactive: -39.3%. As for `CC1=C(C(N)=O)C(c2ccc(F)cc2)n2nc(-c3ccccc3Cl)nc2N1` (stereo unspecified), the “activity change, positive = activation” value is inactive: -0.168%.
